This passage reports z-score results from PubChem BioAssay AID488969 (Vanderbilt High Throughput Screening Facility, 2010).

The full ranking holds about 110,000 compounds; the median of “z-score” is about -0.1, and the highest 2% start at about 2. The list shows a part of the results. Active and inactive are the calls of the source.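 How the source made its calls: active means z-score in the third read window above 3 or below -3; inactive means the rest.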

The target in this assay is Metabotropic glutamate receptor 8 (Rattus norvegicus) (UniProt P70579). Nature of the assay: rat mGluR8 modulators via GIRK flux, primary screen, cell-based, thallium flux, HTS (AID 488969). The conditions noted are these: HEK293 rat mGluR8, GIRK (G protein-gated inwardly rectifying potassium channel) thallium flux, FluoZin2; at 10 µM; stronger effect = higher value; submaximal glutamate (EC20) added with thallium.
Sequence of UniProt P70579 (P70579 whole entry, looked up): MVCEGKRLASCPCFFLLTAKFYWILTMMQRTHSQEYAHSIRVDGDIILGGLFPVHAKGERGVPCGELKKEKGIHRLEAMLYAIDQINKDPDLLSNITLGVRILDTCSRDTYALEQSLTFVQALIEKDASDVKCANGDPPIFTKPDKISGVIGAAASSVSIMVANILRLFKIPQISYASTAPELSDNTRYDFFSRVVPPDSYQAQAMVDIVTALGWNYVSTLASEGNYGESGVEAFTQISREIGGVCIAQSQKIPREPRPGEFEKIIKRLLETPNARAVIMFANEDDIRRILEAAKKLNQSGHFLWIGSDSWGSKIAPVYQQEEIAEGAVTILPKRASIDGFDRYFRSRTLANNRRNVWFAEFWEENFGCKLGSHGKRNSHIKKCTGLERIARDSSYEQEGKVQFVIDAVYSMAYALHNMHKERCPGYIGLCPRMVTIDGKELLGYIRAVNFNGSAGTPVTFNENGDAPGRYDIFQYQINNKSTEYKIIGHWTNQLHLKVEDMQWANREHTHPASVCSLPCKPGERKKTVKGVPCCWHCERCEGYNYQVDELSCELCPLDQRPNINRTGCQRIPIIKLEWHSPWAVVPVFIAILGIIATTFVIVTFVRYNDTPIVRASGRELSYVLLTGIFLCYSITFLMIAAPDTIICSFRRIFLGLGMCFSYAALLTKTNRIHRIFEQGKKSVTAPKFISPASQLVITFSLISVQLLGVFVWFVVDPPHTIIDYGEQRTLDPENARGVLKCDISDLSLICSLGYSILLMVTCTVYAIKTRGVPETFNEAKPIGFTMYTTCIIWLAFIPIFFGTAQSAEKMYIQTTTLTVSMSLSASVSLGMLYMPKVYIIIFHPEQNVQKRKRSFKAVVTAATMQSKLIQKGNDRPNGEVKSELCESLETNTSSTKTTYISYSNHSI
The compound `Cc1cc(C)c(C)c(Cn2c(CO)nc3ccccc32)c1C` gave a z-score of 0.457.
The result for `CCCSc1ccc(-c2nn(-c3ccccc3)cc2/C=C(/C#N)C(=O)NCCCOC)cc1` reads 0.0718.
Compound `Cc1cc(C(=O)CSc2nnc(-c3ccc(Cl)cc3)n2CC2CCCO2)c(C)n1C` (stereo not drawn) had a z-score of 0.741.
For `C=CCSc1nnnn1-c1ccc(OC)cc1`, the z-score is 0.0875.
The value for `Cc1nn(C)c(C)c1S(=O)(=O)N1CCC(C(=O)NCCC2=CCCCC2)CC1` was 1.23; that for `CCC(C)NCC(O)COCc1ccc(Cl)cc1` (stereo not drawn) was 0.901.
The result for `CC(C)(C)OC(=O)NCCc1nnc(S(=O)(=O)Cc2ccc(Cl)cc2Cl)o1` reads -1.15; that for `CCn1ccc(C(=O)Oc2ccc(Cl)cc2)n1`, -0.0654; that for `Cc1cc[n+](-c2[nH]c(=O)sc2/C=N/NC([S-])=Nc2ccccc2)cc1C`, 0.027.
`CCOC(=O)C1CN(S(=O)(=O)c2ccccc2)CCN1S(=O)(=O)c1ccccc1` (stereo not drawn) returned a z-score of -0.313.
`C/C(CC(=O)Nc1ccc(Cl)c(Cl)c1)=N\NC(=O)Cc1ccccc1` showed a z-score of 0.146.
The value for `CC1CCc2cc(F)ccc2N1S(=O)(=O)c1ccc(Cl)nc1` (stereo not drawn) was -0.563.
The value for `Cc1ccc(NS(=O)(=O)c2cc(OCC(N)=O)c(C)cc2Cl)cc1C` was 0.294; that for `Cc1ccn(C(=O)c2ccc(NC(=O)C3CCCCC3)cc2)n1` was -0.348.
For `O=C(c1ccco1)[C@@H]1[C@@H]2C(=O)N(c3ccc(Br)cc3)C(=O)[C@@H]2C2c3ccccc3C=CN21` (stereo partly drawn), the z-score is 0.277.
The value for `Cc1nc(C)c(C(=O)N/N=C/c2c[nH]c3ccccc23)s1` was 0.489.
The result for `CCn1c(SCC(=O)Nc2ccc(OC)c(OC)c2)nnc1-c1c[nH]c2ccccc12` reads -0.141; that for `COc1ccc(S(=O)(=O)N[C@@H](Cc2ccccc2)C(=O)N2CC[C@@]3(O)CCCC[C@H]3C2)cc1`, -1.35; that for `Cn1nc(-c2ccccc2)c(-c2nc(-c3ccc(Cl)cc3)no2)c1Cl`, 0.0699.
As to `CCOc1ccccc1CNC(=O)c1ccc(Sc2ccc(Cl)cc2)c(NC(C)=O)c1`, the z-score is -0.248.
`Cc1ccc(S(=O)(=O)Nc2cc(C(=O)NCCN3CCCC3)ccc2N2CCCCC2)cc1` yielded a z-score of 1.81.
Compound `CN1CCN(CCOc2ccc(Cl)c(Cl)c2)CC1` displayed a z-score of -0.12.
Take `NC(=O)COC(=O)c1cccc(NS(=O)(=O)/C=C/c2ccccc2)c1`: the z-score was -0.152.
The compound `CCC(=O)NC(=S)Nc1ccccc1C(=O)NC1CCCCC1` gave a z-score of 0.0414.
The value for `O=C(CSc1nnc(Cc2ccccc2)o1)Nc1ccc2c(c1)OCO2` was -0.178.
`Cc1nn(Cc2ccc([N+](=O)[O-])cc2)c(=O)n1-c1ccccc1`: the z-score was -0.196.
The result for `Cc1ccc(C)c(OCc2nc(-c3cccnc3)no2)c1` reads 0.0105; that for `Cc1ccc(C)c(N(Cc2ccccc2F)S(C)(=O)=O)c1`, -0.0198; that for `O=C(NCCc1ccccn1)C1CCCN(S(=O)(=O)Cc2ccccc2)C1` (stereo not drawn), -0.112.
Turning to `O=C1/C(=C/c2ccc(O)cc2)SC(=S)N1Cc1cccnc1`, the z-score is -0.121.
`COc1ccc(Cc2nnc(NC(=O)c3cccc([N+](=O)[O-])c3)s2)cc1`: the z-score was -0.367.
Take `Cn1c(=O)cc(OCCCC(=O)N2CCCCC2)c2ccccc21`: the z-score is -0.973.
`CCCCC(=O)Nc1ccc(NC(=O)c2ccc3c(c2)OCO3)cc1OC` yielded a z-score of -0.065.
The value for `Cc1ccc(C)c(N(C)C(=O)c2coc(=O)c3ccccc23)c1` was -0.172; that for `O=C1c2ccccc2C2=Nc3ccccc3SC(c3ccc(Cl)cc3)C12` (stereo not drawn) was -0.247.
The compound `Cc1cc(C(=O)N2CCN(C(c3ccccc3)c3ccccc3)CC2)no1` displayed a z-score of -0.079.
Compound `O=c1c2c3c(sc2ncn1/N=C/c1ccc(Br)o1)CCCC3` had a z-score of 1.24.
The result for `CC1CCCN(Cc2c(O)ccc3c(=O)c(-c4nc5ccccc5s4)c(N)oc23)C1` (stereo not drawn) reads 0.0103; that for `C=CCn1c(COc2ccccc2)nnc1SCC(=O)C(C)(C)C`, -0.29.
The compound `COc1cc(S(=O)(=O)Nc2ccccc2)ccc1N=Cc1c(C)[nH]n(-c2ccc(C)cc2)c1=O` came in with a z-score of -0.199.
On to `Clc1ccc(Nc2ncn[nH]2)cc1`, for which the z-score turned out to be 0.071.
The result for `CCc1c(C)sc(NC(=O)OC)c1C(=O)N1CCCCC1` reads -0.174; that for `COc1ccccc1NC(=S)N1CCC(NC(=O)NC23CC4CC(CC(C4)C2)C3)CC1`, -0.187.
`CC1=CC(C)C2C(=O)N(c3ccccc3)C(=O)C2C1` (stereo not drawn) yielded a z-score of 1.3.
For the compound `CCOC(=O)c1oc2ccccc2c1CN1CCOCC1`, the z-score was -0.0247.
As to `O=C(N/N=C/c1cc([N+](=O)[O-])ccc1O)c1cc(-c2ccccc2)nc2ccccc12`, the z-score was 0.052.
The result for `Cc1nn(-c2ccccc2)c(Cl)c1/C=C(\C#N)C(=O)NC(C)C` reads 0.822; that for `CN(CC(=O)N1CCN(c2ccccn2)CC1)S(=O)(=O)c1ccc(Br)cc1`, -0.089; that for `Cc1cc(=O)oc(C)c1C(=O)OCC(=O)c1ccc(Cl)cc1`, -0.417.
Compound `O=C(c1ccco1)N1CCN(C(=O)c2cc3sccc3n2Cc2ccccc2)CC1` registered a z-score of 0.587.
The result for `COc1ccc([N+](=O)[O-])cc1NC(=O)c1cn(-c2ccc(C)c(C)c2)c(=O)c2ccccc12` reads 0.00792.
Consider `CCc1cccc(CC)c1-n1c(SCC(=O)N2CCc3ccccc3C2)nnc1-c1cccnc1`, for which the z-score was active: -3.06.
Take `COCCN(CC(=O)NC1CCCCC1)C(=O)CSc1nc2ccccc2o1`: the z-score turned out to be 0.165.
Compound `Cc1onc(-c2c(F)cccc2Cl)c1C(=O)N1CCc2ccccc2C1` gave a z-score of 0.182.
The value for `O=C(O)CCC(=O)N1CCc2cc(S(=O)(=O)NC3CCCc4ccccc43)ccc21` (stereo not drawn) was -0.137; that for `Cc1ccc(N=C2NC(=O)C(CC(=O)NCc3ccccc3)S2)cc1C` (stereo not drawn) was -0.263.
On to `CCCc1nc(C)c(-c2ccc(OC)c(OC)c2)c(=O)[nH]1`, for which the z-score was -0.363.
The compound `CCc1ccc2oc(-c3cc(N)ccc3O)nc2c1` had a z-score of -0.0848.
Compound `O=c1c2ccccc2nnn1CSc1ccccc1` showed a z-score of -0.428.
The value for `O=C(CNC(=O)/C(=C\c1ccccc1)NC(=O)c1ccc(Br)cc1)OCc1ccccc1` was -0.33; that for `O=S(=O)(Nc1ccc(S(=O)(=O)Nc2nccs2)cc1)c1ccc2c(c1)OCCO2` was 0.181; that for `COc1ccc([N+](=O)[O-])cc1NC(=O)Cc1ccc(C)cc1` was -1.2.
Compound `Cc1cc(C(=O)NCC(=O)O)c(C)o1` came in with a z-score of 0.711.
With `CCOc1ccc(CNc2ccc3c(c2)ncn3C)cc1`, the z-score was -0.34.
`O=C(Nc1ccc(OC(F)F)c(Cl)c1)c1cccc(OC(F)F)c1`: the z-score is -0.59.
Regarding `CCOc1cc(/C=N/NC(=O)CN(CCc2ccccc2)S(=O)(=O)c2ccc(NC(C)=O)cc2)ccc1O`, the z-score was -0.033.
Compound `N#Cc1ccsc1NC(=O)CN1CCN(S(=O)(=O)c2ccc3ccccc3c2)CC1` had a z-score of -0.12.
Take `CCOC(=O)C(Oc1ccc2c(-c3ccccc3)cc(=O)oc2c1)c1ccccc1` (stereo not drawn): the z-score is -0.0611.
The compound `CCOC(=O)N1CCN(C(=O)c2ccc3c(SCC(=O)O)c4c(nc3c2)CCC4)CC1` yielded a z-score of -0.204.
In the case of `O=[N+]([O-])c1ccc(Sc2ccccc2Cl)nc1`, the z-score is -0.548.
In turn, `O=[N+]([O-])c1ccc(N/N=C/c2ccccc2)c(F)c1` returned a z-score of -0.198.
For `O=c1cc(Cl)[nH]c(=O)n1CCNc1ncc(C(F)(F)F)cc1Cl`, the z-score is -0.316.
The result for `CC(C)(C)NC(=O)c1cnn(-c2ccccc2)c1NC(=O)c1ccccc1` reads -0.209; that for `COC(=O)CSc1ccc(S(=O)(=O)N2CCOCC2)cc1[N+](=O)[O-]`, -0.0155; that for `Cc1cccc(-n2nnnc2SC(C)C(=O)NCCC2=CCCCC2)c1` (stereo not drawn), -0.423.
The result for `O=C(C1CCCN1S(=O)(=O)c1cccc2cccnc12)N1CCN(c2ccccc2)CC1` (stereo not drawn) reads -0.0642; that for `CCOc1ccc(-c2nc3n(c(=O)c2C#N)CCCS3)cc1`, -0.183.
The result for `CC1(C)Cc2cccc(OCC(=O)Nc3cccnc3)c2O1` reads 0.958.
Turning to `CC1CCc2cc(F)ccc2N1C(=O)CCC(=O)O` (stereo not drawn), the z-score worked out at 0.577.
The compound `O=C(Nc1cccc2ncccc12)C(Cl)(Cl)Cl` yielded a z-score of 0.562.
The result for `COc1ccccc1CNc1nc(S(=O)(=O)c2ccccc2)c(Cl)s1` reads -0.0774; that for `CCSc1nc2cc(C(=O)OC)ccc2c(=O)n1CC`, 0.836; that for `Nc1nc(SCc2c(Cl)cccc2Cl)n[nH]1`, 0.732.
In the case of `COc1ccc(OC)c(/C=c2\sc3nc(-c4cccs4)nn3c2=O)c1`, the z-score was -0.157.
Regarding `CCOC(=O)N1CCN(C(=O)C2CCC(C(=O)N3CCN(C(=O)OCC)CC3)CC2)CC1` (stereo not drawn), the z-score was -0.0877.
On to `CCOC(=O)COc1nc(N(C)C)nc(N(C)C)n1`, for which the z-score was 0.741.
On to `CN1C(=O)N(C)C2(c3ccccc3)Nn3c(s/c(=C/c4ccccc4)c3=O)=NC12c1ccccc1` (stereo not drawn), for which the z-score was -0.306.
The compound `CC(=O)N1CCc2cc(S(=O)(=O)NC3CCCc4ccccc43)ccc21` (stereo not drawn) registered a z-score of -0.27.
`CCN(CC(=O)Nc1ccc2c(c1)OCCO2)C(=O)C1CCCCC1` gave a z-score of -0.124.
The value for `CCn1c(CNC(=O)c2ccccc2)nnc1SCC(=O)N1CCN(c2ccccc2)CC1` was -0.187.
The value for `CSCc1c(C(=O)NC2CCCc3ccccc32)oc2ccccc12` (stereo not drawn) was 0.291; that for `O=C(CCc1ccccc1)NNC(=O)c1ccc(NC(=O)c2ccccc2)cc1` was 0.0748.
With `COc1cc(OC)c(NC(=O)Nc2ccc(OC)c(OC)c2)cc1Cl`, the z-score is -0.608.
As to `COc1cc(C(=O)Nc2ccncc2)cc(OC)c1OC`, the z-score was -0.414.
In turn, `Cn1c(=O)c2c(nc(NCCc3ccccc3)n2CC(=O)NCCc2ccccc2)n(C)c1=O` yielded a z-score of 0.112.
In turn, `COc1ccc(CC(=O)Nc2cc(C)on2)cc1OC` displayed a z-score of 0.181.
As to `O=C(Nc1cccnc1)C1(c2ccccc2)CCCC1`, the z-score is -0.0707.
The value for `Cc1ccc(NC(=O)CSc2nnc(-c3cnccn3)n2Cc2ccco2)cc1` was 0.329; that for `O=C(O)Cn1nnn(-c2ccccc2)c1=S` was 0.265; that for `O=C(CSc1nc2ccccc2[nH]1)NCCc1ccc(Cl)cc1` was 0.0542.
In turn, `CCCCn1c(CNC(=O)Cc2ccccc2)nc2ccccc21` showed a z-score of -0.236.
For `Cc1ccc(CCN2CC(C(=O)NCc3cccnc3)CC2=O)cc1` (stereo not drawn), the z-score was -0.0946.
As to `CCSc1nc(N2CCOCC2)c2c(c1C#N)CCCC2`, the z-score was -0.478.
As for `CCCc1nc2ccccc2n1CCOC`, the z-score is -0.145.
`Cc1ccc2cc(CN(C(=O)c3ccco3)c3ccccc3C)c(=O)[nH]c2c1` yielded a z-score of -0.547.
The value for `O=C(Nc1nccs1)C1CCCN1S(=O)(=O)c1ccc(Cl)cc1` (stereo not drawn) was 0.437; that for `Cc1ccc(S(=O)(=O)/N=C(\CN2CCOCC2)N2CCCC2)cc1` was 0.619.
For `CCc1ccc(N/C(SCc2cccc(F)c2)=C(/C#N)C(=O)NCc2ccco2)cc1`, the z-score is 0.197.
